Measurements from the GPR68 mutational scans of Howard et al. (2025).
Scores whose standard error is large were omitted. The source holds two more conditions with little spread; they are left out. In variant names, del marks residues removed and ins residues inserted between the two positions. For some of these results: The data file names ogerin without a concentration.

B1: GPR68, Q15743 (parent)
chain: MGNITADNSSMSCTIDHTIHQTLAPVVYVTVLVVGFPANCLSLYFGYLQIKARNELGVYLCNLTVADLFYICSLPFWLQYVLQHDNWSHGDLSCQVCGILLYENIYISVGFLCCISVDRYLAVAHPFRFHQFRTLKAAVGVSVVIWAKELLTSIYFLMHEEVIEDENQHRVCFEHYPIQAWQRAINYYRFLVGFLFPICLLLASYQGILRAVRRSHGTQKSRKDQIQRLVLSTVVIFLACFLPYHVLLLVRSVWEASCDFAKGVFNAYHFSLLLTSFNCVADPVLYCFVSETTHRDLARLRGACLAFLTCSRTGRAREAYPLGAPEASGKSGAQGEEPELLTKLHPAFQTPNSPGSGGFPTGRLA

What was measured:
[1] = variants of: B1; test: cAMP reporter score (Enrich2 score, wild type = 0); higher = more signal; HEK293T, FACS bins
[2] = variants of: B1; test: surface expression score (Enrich2 score, wild type = 0); higher = more signal; HEK293T, FACS bins

L274_S276del gave a cAMP reporter score ([1]; pH 5.5) of -1.3, a cAMP reporter score ([1]; pH 6) of -1.28 and a cAMP reporter score ([1]; pH 6, modulator: ogerin) of -1.71. For the same variant, the cAMP reporter score ([1]; pH 6.5, modulator: ogerin) was -0.627 and the surface expression score [2] was -3.09.

Work on MGNITADNSSMSCTIDHTIHQTLAPVVYVTVLVVGFPANCLSLYFGYLQIKARNELGVYLCNLTVADLFYICSLPFWLQYVLQHDNWSHGDLSCQVCGILLYENIYISVGFLCCISVDRYLAVAHPFRFHQFRTLKAAVGVSVVIWAKELLTSIYFLMHEEVIEDENQHRVCFEHYPIQAWQRAINYYRFLVGFLFPICLLLASYQGILRAVRRSHGTQKSRKDQIQRLVLSTVVIFLACFLPYHVLLLVRSVWEASCDFAKGVFNAYHFSLLLCSFNCVADPVLYCFVSETTHRDLARLRGACLAFLTCSRTGRAREAYPLGAPEASGKSGAQGEEPELLTKLHPAFQTPNSPGSGGFPTGRLA [T275C] yielded a cAMP reporter score ([1]; pH 5.5) of -0.698, a cAMP reporter score ([1]; pH 6) of -1.3 and a cAMP reporter score ([1]; pH 6, modulator: ogerin) of -2.05. The cAMP reporter score ([1]; pH 6.5, modulator: ogerin) was -0.751 and the surface expression score [2] was 0.824.

For MGNITADNSSMSCTIDHTIHQTLAPVVYVTVLVVGFPANCLSLYFGYLQIKARNELGVYLCNLTVADLFYICSLPFWLQYVLQHDNWSHGDLSCQVCGILLYENIYISVGFLCCISVDRYLAVAHPFRFHQFRTLKAAVGVSVVIWAKELLTSIYFLMHEEVIEDENQHRVCFEHYPIQAWQRAINYYRFLVGFLFPICLLLASYQGILRAVRRSHGTQKSRKDQIQRLVLSTVVIFLACFLPYHVLLLVRSVWEASCDFAKGVFNAYHFSLLLESFNCVADPVLYCFVSETTHRDLARLRGACLAFLTCSRTGRAREAYPLGAPEASGKSGAQGEEPELLTKLHPAFQTPNSPGSGGFPTGRLA [T275E], the cAMP reporter score ([1]; pH 5.5) was -1.05, the cAMP reporter score ([1]; pH 6) was -0.305 and the cAMP reporter score ([1]; pH 6, modulator: ogerin) was -0.771. The cAMP reporter score ([1]; pH 6.5, modulator: ogerin) was -1.26 and the surface expression score [2] was -2.22.

MGNITADNSSMSCTIDHTIHQTLAPVVYVTVLVVGFPANCLSLYFGYLQIKARNELGVYLCNLTVADLFYICSLPFWLQYVLQHDNWSHGDLSCQVCGILLYENIYISVGFLCCISVDRYLAVAHPFRFHQFRTLKAAVGVSVVIWAKELLTSIYFLMHEEVIEDENQHRVCFEHYPIQAWQRAINYYRFLVGFLFPICLLLASYQGILRAVRRSHGTQKSRKDQIQRLVLSTVVIFLACFLPYHVLLLVRSVWEASCDFAKGVFNAYHFSLLLDSFNCVADPVLYCFVSETTHRDLARLRGACLAFLTCSRTGRAREAYPLGAPEASGKSGAQGEEPELLTKLHPAFQTPNSPGSGGFPTGRLA [T275D] showed a cAMP reporter score ([1]; pH 5.5) of -1.15, a cAMP reporter score ([1]; pH 6) of -1.58 and a cAMP reporter score ([1]; pH 6, modulator: ogerin) of -2.33. It also gave a cAMP reporter score ([1]; pH 6.5, modulator: ogerin) of -1.93 and a surface expression score [2] of -1.53.

Variant MGNITADNSSMSCTIDHTIHQTLAPVVYVTVLVVGFPANCLSLYFGYLQIKARNELGVYLCNLTVADLFYICSLPFWLQYVLQHDNWSHGDLSCQVCGILLYENIYISVGFLCCISVDRYLAVAHPFRFHQFRTLKAAVGVSVVIWAKELLTSIYFLMHEEVIEDENQHRVCFEHYPIQAWQRAINYYRFLVGFLFPICLLLASYQGILRAVRRSHGTQKSRKDQIQRLVLSTVVIFLACFLPYHVLLLVRSVWEASCDFAKGVFNAYHFSLLLASFNCVADPVLYCFVSETTHRDLARLRGACLAFLTCSRTGRAREAYPLGAPEASGKSGAQGEEPELLTKLHPAFQTPNSPGSGGFPTGRLA [T275A] has a cAMP reporter score ([1]; pH 5.5) of -0.319, a cAMP reporter score ([1]; pH 6) of -1.75 and a cAMP reporter score ([1]; pH 6, modulator: ogerin) of -0.694. The cAMP reporter score ([1]; pH 6.5, modulator: ogerin) was -0.892 and the surface expression score [2] was 2.47.

L274_T275insGS gave a cAMP reporter score ([1]; pH 5.5) of -1.28, a cAMP reporter score ([1]; pH 6) of -0.605 and a cAMP reporter score ([1]; pH 6, modulator: ogerin) of -1.54. It also gave a cAMP reporter score ([1]; pH 6.5, modulator: ogerin) of -1.04 and a surface expression score [2] of -3.12.

Variant L274_T275insGSG has a cAMP reporter score ([1]; pH 5.5) of -1.11, a cAMP reporter score ([1]; pH 6) of -0.658 and a cAMP reporter score ([1]; pH 6.5, modulator: ogerin) of -0.648. For the same variant, the surface expression score [2] was -2.14.
